# Test results as given in the supplement of paper PMC8728848.
# The other results are listed elsewhere or left out.
# B1: Gal 8 (Mus musculus), Q9JL15 (protein)
# chain: MGGSHHHHHHGMASMLSLNNLQNIIYNPIIPYVGTITEQLKPGSLIVIRGHVPKDSERFQVDFQLGNSLKPRADVAFHFNPHFKRSSCIVCNTLTQEKWGWEEITYDMPFRKEKSFEIVFMVLKNKFQVAVNGRHVLLYAHRISPEQIDTVGIYGKVNIHSIGFRFSSASALPHTLGDLQSMETSALGLTQINRENIQKPGKLQLSLPFEARLNASMGPGRTVVIKGEVNTNARSFNVDLVAGKTRDIALHLNPHLNVKAFVRNSFLQDAWGEEERNITCFPFSSGMYFEMIIYCDVREFKVAINGVHSLEYKHRFKDLSSIDTLSVDGDIRLLDVRSW
# Legend:
# Assay in all cases: glycan array binding signal (z-score within array); higher = stronger binding
# Conditions in all cases: glycan notation: IUPAC condensed, linker removed; mutation: R82H, R255H
# Gal6S(b1-4)Glc = target: Gal6S(b1-4)Glc
# Method in brief: (§1)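 From the Consortium for Functional Glycomics database, 3228 arrays were curated, keeping only those whose protein sequence was available. Binding is given as a within-array Z-score averaged across arrays sharing a protein sequence and across linkers. Negative Z-scores can be read as non-binding.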
# Gal6S(b1-4)Glc6S = target: Gal6S(b1-4)Glc6S
# Method in brief: as §1
# Gal6S(b1-4)GlcNAc = target: Gal6S(b1-4)GlcNAc
# Method in brief: as §1
# Gal6S(b1-4)GlcNAc6S = target: Gal6S(b1-4)GlcNAc6S
# Method in brief: as §1
# GalNAc(a1-3)Gal = target: GalNAc(a1-3)Gal
# Method in brief: as §1
# GalNAc(a1-3)GalNAc = target: GalNAc(a1-3)GalNAc
# Method in brief: as §1
# [1] = target: GalNAc(a1-3)GalNAc(b1-3)Gal(a1-4)Gal(b1-4)Glc
# Method in brief: as §1
# [2] = target: GalNAc(a1-3)GalNAc(b1-3)Gal(a1-4)Gal(b1-4)GlcNAc
# Method in brief: as §1
# GalNAc(b1-3)Gal = target: GalNAc(b1-3)Gal
# Method in brief: as §1
# [3] = target: GalNAc(b1-3)Gal(a1-4)Gal(b1-4)GlcNAc
# Method in brief: as §1
# [4] = target: GalNAc(b1-3)Gal(a1-4)Gal(b1-4)GlcNAc(b1-3)Gal(b1-4)Glc
# Method in brief: as §1
# [5] = target: GalNAc(b1-3)Gal(a1-6)Gal(b1-4)Glc
# Method in brief: as §1
# GalNAc(b1-3)GalNAc = target: GalNAc(b1-3)GalNAc
# Method in brief: as §1
# GalNAc(b1-3)GlcNAc = target: GalNAc(b1-3)GlcNAc
# Method in brief: as §1
# GalNAc(b1-4)Gal(b1-4)Glc = target: GalNAc(b1-4)Gal(b1-4)Glc
# Method in brief: as §1
# GalNAc(b1-4)GlcNAc = target: GalNAc(b1-4)GlcNAc
# Method in brief: as §1
# [6] = target: GalNAc(b1-4)GlcNAc(b1-2)Man
# Method in brief: as §1
# [7] = target: GalNAc(b1-4)GlcNAc(b1-2)Man(a1-3)[GalNAc(b1-4)GlcNAc(b1-2)Man(a1-6)]Man(b1-4)GlcNAc(b1-4)GlcNAc
# Method in brief: as §1
# [8] = target: GalNAc(b1-4)GlcNAc(b1-3)GalNAc(b1-4)GlcNAc
# Method in brief: as §1
# GalNAc(b1-4)GlcNAc6S = target: GalNAc(b1-4)GlcNAc6S
# Method in brief: as §1
# GalNAc(b1-6)GalNAc = target: GalNAc(b1-6)GalNAc
# Method in brief: as §1
# GalNAc3S(b1-4)GlcNAc = target: GalNAc3S(b1-4)GlcNAc
# Method in brief: as §1
# GalNAc3S(b1-4)GlcNAc3S = target: GalNAc3S(b1-4)GlcNAc3S
# Method in brief: as §1
# [9] = target: GalNAc3S(b1-4)[Fuc(a1-3)]GlcNAc
# Method in brief: as §1
# GalNAc4S6S(b1-4)GlcNAc = target: GalNAc4S6S(b1-4)GlcNAc
# Method in brief: as §1
# GalNAc6S(b1-4)GlcNAc = target: GalNAc6S(b1-4)GlcNAc
# Method in brief: as §1
# Glc(a1-4)Glc = target: Glc(a1-4)Glc
# Method in brief: as §1
# [10] = target: Glc(a1-4)Glc(a1-4)Glc(a1-4)Glc
# Method in brief: as §1
# Glc(a1-6)Glc(a1-6)Glc = target: Glc(a1-6)Glc(a1-6)Glc
# Method in brief: as §1
# [11] = target: Glc(a1-6)Glc(a1-6)Glc(a1-6)Glc
# Method in brief: as §1
# Glc(b1-4)Glc = target: Glc(b1-4)Glc
# Method in brief: as §1
# Glc(b1-6)Glc = target: Glc(b1-6)Glc
# Method in brief: as §1
# GlcA(b1-3)Gal = target: GlcA(b1-3)Gal
# Method in brief: as §1
# GlcA(b1-3)GlcNAc = target: GlcA(b1-3)GlcNAc
# Method in brief: as §1
# GlcA(b1-6)Gal = target: GlcA(b1-6)Gal
# Method in brief: as §1
# [12] = target: GlcA3S(b1-3)Gal(b1-4)GlcNAc(b1-2)Man
# Method in brief: as §1
# [13] = target: GlcA3S(b1-3)Gal(b1-4)GlcNAc(b1-3)Gal(b1-4)Glc
# Method in brief: as §1
# [14] = target: GlcNAc(a1-3)Gal(b1-4)GlcNAc
# Method in brief: as §1
# [15] = target: GlcNAc(a1-4)Gal(b1-3)GlcNAc
# Method in brief: as §1
# [16] = target: GlcNAc(a1-4)Gal(b1-4)GalNAc
# Method in brief: as §1
# [17] = target: GlcNAc(a1-4)Gal(b1-4)GlcNAc
# Method in brief: as §1
# [18] = target: GlcNAc(a1-4)Gal(b1-4)GlcNAc(b1-3)Gal(b1-4)Glc
# Method in brief: as §1
# [19] = target: GlcNAc(a1-4)Gal(b1-4)GlcNAc(b1-3)Gal(b1-4)GlcNAc
# Method in brief: as §1
# [20] = target: GlcNAc(a1-4)Gal(b1-4)GlcNAc(b1-3)Gal(b1-4)GlcNAc(b1-3)Gal(b1-4)GlcNAc
# Method in brief: as §1
# [21] = target: GlcNAc(a1-4)Gal(b1-4)GlcNAc(b1-3)Gal(b1-4)[Fuc(a1-3)]GlcNAc(b1-3)Gal(b1-4)[Fuc(a1-3)]GlcNAc
# Method in brief: as §1
binder,measurement,setting,value
B1,glycan array binding signal (z-score),Gal6S(b1-4)Glc,-0.236
same,glycan array binding signal (z-score),Gal6S(b1-4)Glc6S,-0.193
same,glycan array binding signal (z-score),Gal6S(b1-4)GlcNAc,-0.26
same,glycan array binding signal (z-score),Gal6S(b1-4)GlcNAc6S,-0.225
same,glycan array binding signal (z-score),GalNAc(a1-3)Gal,-0.251
same,glycan array binding signal (z-score),GalNAc(a1-3)GalNAc,-0.215
same,glycan array binding signal (z-score),[1],-0.214
same,glycan array binding signal (z-score),[2],-0.222
same,glycan array binding signal (z-score),GalNAc(b1-3)Gal,-0.136
same,glycan array binding signal (z-score),[3],-0.24
same,glycan array binding signal (z-score),[4],-0.261
same,glycan array binding signal (z-score),[5],-0.265
same,glycan array binding signal (z-score),GalNAc(b1-3)GalNAc,-0.259
same,glycan array binding signal (z-score),GalNAc(b1-3)GlcNAc,-0.234
same,glycan array binding signal (z-score),GalNAc(b1-4)Gal(b1-4)Glc,-0.212
same,glycan array binding signal (z-score),GalNAc(b1-4)GlcNAc,-0.245
same,glycan array binding signal (z-score),[6],-0.26
same,glycan array binding signal (z-score),[7],-0.194
same,glycan array binding signal (z-score),[8],-0.271
same,glycan array binding signal (z-score),GalNAc(b1-4)GlcNAc6S,-0.253
same,glycan array binding signal (z-score),GalNAc(b1-6)GalNAc,0.023
same,glycan array binding signal (z-score),GalNAc3S(b1-4)GlcNAc,-0.264
same,glycan array binding signal (z-score),GalNAc3S(b1-4)GlcNAc3S,-0.249
same,glycan array binding signal (z-score),[9],-0.297
same,glycan array binding signal (z-score),GalNAc4S6S(b1-4)GlcNAc,-0.218
same,glycan array binding signal (z-score),GalNAc6S(b1-4)GlcNAc,-0.276
same,glycan array binding signal (z-score),Glc(a1-4)Glc,-0.212
same,glycan array binding signal (z-score),[10],-0.205
same,glycan array binding signal (z-score),Glc(a1-6)Glc(a1-6)Glc,-0.23
same,glycan array binding signal (z-score),[11],-0.178
same,glycan array binding signal (z-score),Glc(b1-4)Glc,-0.224
same,glycan array binding signal (z-score),Glc(b1-6)Glc,-0.229
same,glycan array binding signal (z-score),GlcA(b1-3)Gal,-0.249
same,glycan array binding signal (z-score),GlcA(b1-3)GlcNAc,-0.232
same,glycan array binding signal (z-score),GlcA(b1-6)Gal,-0.285
same,glycan array binding signal (z-score),[12],-0.264
same,glycan array binding signal (z-score),[13],-0.198
same,glycan array binding signal (z-score),[14],-0.284
same,glycan array binding signal (z-score),[15],-0.292
same,glycan array binding signal (z-score),[16],-0.158
same,glycan array binding signal (z-score),[17],-0.279
same,glycan array binding signal (z-score),[18],-0.27
same,glycan array binding signal (z-score),[19],-0.253
same,glycan array binding signal (z-score),[20],-0.277
same,glycan array binding signal (z-score),[21],-0.097
